Molecules are shown by their SMILES. About 14,000 (4.5%) of roughly 310,000 compounds showed an effect of 50% or more. Effects have a minus sign here. This is one part of the list.

The source of these data is paper PMC4336329 (PLoS ONE, 2015).
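Note: peak tail current of the secondary pulse compared with the same well before compound.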

In this test the target is human ether-à-go-go-related gene (hERG) potassium channel (human, UniProt Q12809). Put plainly: primary screen, population patch clamp on CHO cells stably expressing hERG.
Sequence of human ether-à-go-go-related gene (hERG) potassium channel (Q12809 whole entry, looked up): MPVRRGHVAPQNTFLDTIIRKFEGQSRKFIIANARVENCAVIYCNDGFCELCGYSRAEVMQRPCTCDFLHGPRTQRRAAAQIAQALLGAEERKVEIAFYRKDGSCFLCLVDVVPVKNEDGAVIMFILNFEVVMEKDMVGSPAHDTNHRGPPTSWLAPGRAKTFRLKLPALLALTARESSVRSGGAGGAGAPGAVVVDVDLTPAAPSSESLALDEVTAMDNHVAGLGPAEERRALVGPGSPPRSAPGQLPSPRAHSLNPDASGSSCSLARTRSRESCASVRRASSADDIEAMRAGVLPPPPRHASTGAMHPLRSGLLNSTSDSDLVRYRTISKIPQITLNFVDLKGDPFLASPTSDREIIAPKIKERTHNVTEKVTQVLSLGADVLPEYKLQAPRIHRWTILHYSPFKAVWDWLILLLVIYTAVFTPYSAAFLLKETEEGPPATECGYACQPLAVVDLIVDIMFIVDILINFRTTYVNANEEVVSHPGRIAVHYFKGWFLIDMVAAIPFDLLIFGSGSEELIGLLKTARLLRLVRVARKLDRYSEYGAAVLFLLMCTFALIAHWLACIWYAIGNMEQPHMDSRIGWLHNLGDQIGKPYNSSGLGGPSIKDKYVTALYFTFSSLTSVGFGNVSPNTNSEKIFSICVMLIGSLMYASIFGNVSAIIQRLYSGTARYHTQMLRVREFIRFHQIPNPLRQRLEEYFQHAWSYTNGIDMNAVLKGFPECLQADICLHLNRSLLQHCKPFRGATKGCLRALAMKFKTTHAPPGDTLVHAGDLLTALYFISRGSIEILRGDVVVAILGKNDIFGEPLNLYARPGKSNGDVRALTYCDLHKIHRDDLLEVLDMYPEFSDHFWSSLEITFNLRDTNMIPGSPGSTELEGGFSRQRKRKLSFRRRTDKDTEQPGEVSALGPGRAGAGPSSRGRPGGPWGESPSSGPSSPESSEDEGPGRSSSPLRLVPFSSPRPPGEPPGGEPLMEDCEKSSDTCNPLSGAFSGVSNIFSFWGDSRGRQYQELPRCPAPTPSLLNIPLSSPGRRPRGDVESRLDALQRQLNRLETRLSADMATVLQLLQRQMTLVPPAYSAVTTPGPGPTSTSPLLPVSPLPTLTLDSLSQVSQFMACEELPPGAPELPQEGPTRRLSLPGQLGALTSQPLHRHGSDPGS
For `COc1cccc(C2=CC(c3cccc(OC)c3OC)n3nnnc3N2)c1` (centres unmarked), the “hERG current change (%, negative = inhibition) at 10uM” value is -0.13%.

Regarding `CC(CCc1ccccc1)NC(=O)c1nnc(Cc2ccc(F)cc2)o1` (centres unmarked), the “hERG current change (%, negative = inhibition) at 10uM” value is listed as -17.8%.

With `Nc1nnc(SCc2ccc(F)cc2)s1`, the “hERG current change (%, negative = inhibition) at 10uM” value is listed as -6.14%. The value for `O=C(CN1CCN(CCO)CC1)Nc1ccc(Cl)cc1C(=O)c1ccccc1` was -72.8%; that for `Cc1[nH]c2ccccc2c1C(=O)CN1C(=O)NC(C)(c2ccc(Cl)cc2Cl)C1=O` (centres unmarked) was 4.54%. Regarding `CN(C)S(=O)(=O)c1ccc2c(c1)C(=NO)c1cc(S(=O)(=O)N(C)C)ccc1-2`, the “hERG current change (%, negative = inhibition) at 10uM” value turned out to be 14.7%.

Consider `COc1ccccc1Oc1ccc(N/C=C2/CCCC2=O)cc1`, for which the “hERG current change (%, negative = inhibition) at 10uM” value is listed as -3.91%. In the case of `CCN1C(=O)CC(C(=O)Nc2ccc(F)cc2)SC1=Nc1ccc2c(c1)OCO2` (centres unmarked), the “hERG current change (%, negative = inhibition) at 10uM” value is recorded as -13.5%. The value for `Cc1ccc(-c2nc(CS(=O)CC(=O)NCCCN3CC(C)CC(C)C3)c(C)o2)cc1` (centres unmarked) was -19.9%.

Take `CSc1nc(C)c2c(n1)N(c1ccc(C(C)C)cc1)CC2`: the “hERG current change (%, negative = inhibition) at 10uM” value is recorded as 15.3%. `CCOC(=O)CN1C(=O)C2(C(C#N)=C(N)Oc3ccccc32)C(C(=O)OC)=C1C` (centres unmarked): the “hERG current change (%, negative = inhibition) at 10uM” value is given as 10.1%.

With `CSc1ncccc1C(=O)NCC12CC3CC(CC(C3)C1)C2`, the “hERG current change (%, negative = inhibition) at 10uM” value was determined as 0.585%.

In the case of `COCc1cccc(NC(=O)CCc2ccccc2)c1`, the “hERG current change (%, negative = inhibition) at 10uM” value stood at 18.1%.

With `Cc1cc(Cl)ccc1OCC(=O)NNC(=O)CCOc1ccccc1`, the “hERG current change (%, negative = inhibition) at 10uM” value is listed as -6.26%. The value for `CCOc1nc(NCCc2ccc(OC)c(OC)c2)nc(NC(C)(C)CO)n1` was 1.6%; that for `CC(C)(C)N(Cc1ccccc1)C(=O)COC(=O)c1ccc([N+](=O)[O-])o1` was 8.38%. The value for `O=C(Nc1ncccc1O)c1ccc(Oc2ccccc2)cc1` was -1.73%; that for `COc1cccc(CNC(=O)c2ccc3nc[nH]c3c2)c1` was 16.2%; that for `COc1ccc(N2C(=O)N3[C@H](c4ccc(Cl)cc4)[C@@H]4C(=O)N(C5CCCCC5)C(=O)[C@@H]4[C@]3(C)C2=O)cc1` was -1.17%. The value for `Cc1ccc(C(=O)N2CCN(C3CCCCC3)CC2)s1` was -36.7%; that for `Cc1ccc(C)c(NC(=S)/C(=C(\[O-])c2ccc(OC(F)F)cc2)[n+]2ccccc2)c1` was 21.1%.

As for `O=[N+]([O-])c1ccc(Sc2cc[n+]([O-])c3ccccc23)c([N+](=O)[O-])c1`, the “hERG current change (%, negative = inhibition) at 10uM” value is listed as -65.3%. As for `C=CCOc1ccccc1C(=O)/C=C1/C(=O)Nc2ccccc21`, the figure is 11.7%; as for `Cc1cccc(Nc2nnc(SC/C(O)=C(\C#N)c3nc4ccccc4[nH]3)s2)c1C`, 0.65%. The value for `Cc1ccc(C)c(C(=O)COC(=O)c2cc(Cl)nc3ccccc23)c1` was 26.4%. As to `CCOc1ccc(S(=O)(=O)N/N=C2/CC(c3ccccc3)Oc3ccccc32)cc1` (centres unmarked), the “hERG current change (%, negative = inhibition) at 10uM” value was 2.42%.

In the case of `COc1ccc(NC(=O)c2cc(-c3ccccc3Cl)on2)cc1`, the “hERG current change (%, negative = inhibition) at 10uM” value was determined as 12%. `CC1CCCCC1NC(=O)C(=O)NCC1CCCO1` (centres unmarked): the “hERG current change (%, negative = inhibition) at 10uM” value is on record as 4.52%. In the case of `O=C(Nc1ccccc1C(=O)N1CCCCC1)c1cccc(S(=O)(=O)N2CCOCC2)c1`, the “hERG current change (%, negative = inhibition) at 10uM” value is on record as -19.2%. As for `COc1ccccc1OCC(=O)NCc1nc(-c2ccccc2)no1`, the figure is -5.67%; as for `Cc1cccc(N2CCC(N3CCN(C4CCCCC4)C(CCO)C3)CC2)c1C` (centres unmarked), -42.7%; as for `CCN(CC)S(=O)(=O)c1ccc(NC(=O)COc2nc3ccccc3nc2N2CCOCC2)cc1`, 2.13%. In the case of `Cc1occc1-c1nnc(SCC(=O)NC(C)(C)C)n1CC(C)C`, the “hERG current change (%, negative = inhibition) at 10uM” value came to 13%. As for `Cc1cc(NC(=O)c2ccccc2NS(=O)(=O)c2c(C)c(C)cc(C)c2C)no1`, the figure is 4.51%; as for `COc1ccc(OC)c(NC(=O)NNC(=O)COc2ccc([N+](=O)[O-])cc2)c1`, 9.31%. The value for `COc1cc2c(cc1OC)C(c1ccc3c(c1)OCO3)CC(=O)N2` (centres unmarked) was -28.4%; that for `Cc1cccc(NC(=O)/C(C#N)=C/c2ccc(F)cc2)n1` was 30%; that for `O=C(CCS(=O)(=O)c1ccc(Br)cc1)NCCc1ccccc1` was 13.5%.

`O=C(NNc1ncccc1-n1cccc1)c1ccc(Cl)cc1`: the “hERG current change (%, negative = inhibition) at 10uM” value is -15.4%. On to `Cc1nnc(NC(=O)Nc2cccc(Cl)c2)s1`, for which the “hERG current change (%, negative = inhibition) at 10uM” value is reported as -12.6%. The value for `Cc1ccc(Cl)cc1NC(=S)N1CCC(c2ccccc2)C1` (centres unmarked) was -3.76%. As for `N#Cc1ccc(CN2CCN(c3ccc(S(=O)(=O)N4CCCC4)cn3)CC2)cc1`, the figure is -5.28%; as for `COc1cccc(-c2nn(-c3ccccc3)cc2C(=O)NCC(=O)O)c1`, 17.5%; as for `COc1ccccc1N(CC(=O)NC1CCCC1)C(=O)CNC(=O)c1cccs1`, 12.7%. The value for `CCC(NC(=O)OCc1ccccc1)C(=O)Oc1ccc2ccc(=O)oc2c1` (centres unmarked) was 15.7%; that for `O=C(/C(N=Nc1cccc([N+](=O)[O-])c1)=C(/O)c1ccc(Br)cc1)C(F)(F)F` was 14.9%. Take `COCCNC(=S)N/N=C(\C)c1ccccc1F`: the “hERG current change (%, negative = inhibition) at 10uM” value is given as 4.4%. The value for `COc1cc(OC)cc(C(=O)Nc2ccc(NC(=O)c3ccco3)c(C)c2)c1` was -13.1%; that for `CC(=O)Nc1ccc2nc(NC(=O)COc3cccc(C)c3)sc2c1` was -3.77%. For the compound `COc1cccc(C2CNC3(CCCC(C)C3)c3[nH]c4ccccc4c32)c1OC.Cl` (centres unmarked), the “hERG current change (%, negative = inhibition) at 10uM” value was -23.6%. The value for `Cn1c(SCC(=O)N/N=C/c2ccc([N+](=O)[O-])s2)nnc1-c1ccc(Cl)cc1` was -41.7%; that for `Cc1ccc(-n2nnnc2-c2cnc3cc4c(cc3c2C)OCO4)cc1` was 3.65%; that for `Cc1ccc(C)c(C2=NNC(=O)CC2)c1` was 2.5%. As for `O=C(c1cc(COc2ccc(F)cc2Cl)on1)N1CCCC(c2ccccc2)C1` (centres unmarked), the figure is -5.56%; as for `O=C(COc1ccc(Cl)cc1)OCC(=O)N1CCCc2ccccc21`, 17.4%. With `COc1ccc(NC(=O)COC(=O)c2ccc(S(=O)(=O)N(C)c3ccccc3OC)cc2)cc1OC`, the “hERG current change (%, negative = inhibition) at 10uM” value stood at 14%. As for `COc1ccc2c(c1)-c1ccccc1S(=O)(=O)N2C`, the figure is -9.76%; as for `COc1ccc(C(=O)NCC(C)CN(C)C)cc1` (centres unmarked), -9.08%.

With `Cc1nc2c(C#N)cnn2c2c1CCN(Cc1ccccc1)N2C`, the “hERG current change (%, negative = inhibition) at 10uM” value is recorded as -58%. The value for `COc1ccccc1/C=N/NC(=O)c1cccc(NC(=O)c2ccccc2C)c1` was -4.64%; that for `CCCC(=O)c1ccc(N2CCN(C(=O)c3ccccc3Br)CC2)c(F)c1` was -23.7%. As for `Cc1onc(-c2c(F)cccc2Cl)c1C(=O)NNC(=O)C1CCN(Cc2cccc(F)c2)CC1`, the figure is -16.9%; as for `CN(C(=O)CO/N=C/c1ccc(Cl)cc1)c1ccccc1`, -44.2%; as for `CCCN1CCC(NC(=S)Nc2ccc(C(=O)OCC)cc2)CC1`, -18.2%. As for `CC(C)CC(NC(=O)C(CC(C)C)NC(=O)OC(C)(C)C)C(=O)O` (centres unmarked), the figure is 25.9%; as for `O=S(=O)(c1ccc(OCC2CO2)cc1)c1ccc(OCC2CO2)cc1` (centres unmarked), 15.8%. As for `Cc1cc(C)c(S(=O)(=O)N2CCCCC2CCNC(=O)C(=O)NCc2ccco2)c(C)c1` (centres unmarked), the “hERG current change (%, negative = inhibition) at 10uM” value is listed as -6.51%. As for `COc1cccc(NC(=O)CSc2nc3n[nH]c(C)c3c(=N)n2-c2cccc(OC)c2)c1`, the figure is -8.71%; as for `CC(C)c1ccc(-c2c(C#N)c(N)nc(SCC(=O)N3CCCCC3)c2C#N)cc1`, 17.5%; as for `Cc1ccc(Cn2c(SCC(C)C)nc3c2c(=O)[nH]c(=O)n3C)cc1`, 4.21%. The value for `COc1ccc2nc(SCC(=O)NC3CCCC3)c(C)cc2c1` was 4.08%; that for `O=C(O)c1ccc(S(=O)(=O)N2CCCC2)cc1` was 11.4%. The value for `O=C1CCCN1CCCN1C(=O)N[C@@H](Cc2ccccc2)C1=O` was 14.7%.

For `CC1=CSC2=NC(=O)/C(=C/c3cccc(OC(=O)c4ccco4)c3)C(=N)N12`, the “hERG current change (%, negative = inhibition) at 10uM” value was -1.35%. As for `Clc1cc(Cl)cc(CN2CCSCC2)c1`, the figure is 13.3%. The value for `O.O=c1ccc2cc(OC3O[C@H](CO)[C@@H](O)[C@H](O)[C@H]3O)c(O)cc2o1` (some centres unmarked) was 9.76%. Consider `CS(=O)(=O)N1CCC(C(=O)N2CCC(Cc3ccccc3)CC2)CC1`, for which the “hERG current change (%, negative = inhibition) at 10uM” value is listed as -15.1%. For `CC(C)C(NS(=O)(=O)c1ccc2c(c1)OCCO2)C(=O)NCCc1ccccn1` (centres unmarked), the “hERG current change (%, negative = inhibition) at 10uM” value turned out to be 6.06%. As for `O=C(CC12CC3CC(CC(C3)C1)C2)NC(Cc1ccccc1)C(=O)O` (centres unmarked), the figure is 2.38%; as for `COc1ccccc1CCNC(=O)c1ccc(Br)s1`, 1.13%. As for `Cc1ccccc1OCc1nnc(SCC(=O)O)n1Cc1ccccc1`, the figure is 14.7%; as for `O=C(NCCCNC(=O)c1cc(Cl)ccc1Cl)c1ccco1`, 2.79%. As for `C/C(N)=C(/C#N)C(=O)CSc1nc2cc(Cl)ccc2s1`, the figure is -16.4%. Turning to `COc1ccc(CNC(=O)C(=O)N2CCC3(CC2)OCCN3S(=O)(=O)c2ccc(C)cc2)cc1`, the “hERG current change (%, negative = inhibition) at 10uM” value was -29.9%.

On to `c1cncc(Oc2cccc(Oc3cccnc3)c2)c1`, for which the “hERG current change (%, negative = inhibition) at 10uM” value was found to be 1.75%. As for `COc1ccc(OC)c(NC(=O)CCNS(=O)(=O)c2cccc3nonc23)c1`, the figure is 5.77%.
